From publication PMC9911399, “Two distinct binding modes provide the RNA-binding protein RbFox with extraordinary sequence specificity” come the findings set out here.

To fix the notation:
T1: RBFOX1 RRM RbFoxmut (Fox-RRM*) (Homo sapiens, UniProt Q9NWB1 109-208, R118D;E147R;N151S;E152T)
T1 sequence: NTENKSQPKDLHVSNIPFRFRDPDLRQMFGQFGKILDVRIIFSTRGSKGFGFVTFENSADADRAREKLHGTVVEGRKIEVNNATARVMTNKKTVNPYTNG

B1: AAAGUCG (DNA:RNA)
RNA: GGGAGACCGGAAUUCAGAUUGUCCAAAGUCGUUAAAUCCCGUCGUAGCCACCA
DNA 1: CAATCTGAATTCCGGTCTCCC
DNA 2: TGGTGGCTACGACGGGATT
B2: AUCCGAC (DNA:RNA)
RNA: B1 RNA with A26U, A27C, G28C, U29G, C30A, G31C
DNA 1: CAATCTGAATTCCGGTCTCCC
DNA 2: TGGTGGCTACGACGGGATT
B3: GGAACUG (DNA:RNA)
RNA: B1 RNA with A25G, A26G, G28A, U29C, C30U
DNA 1: CAATCTGAATTCCGGTCTCCC
DNA 2: TGGTGGCTACGACGGGATT
B4: GAAACCU (DNA:RNA)
RNA: B1 RNA with A25G, G28A, U29C, G31U
DNA 1: CAATCTGAATTCCGGTCTCCC
DNA 2: TGGTGGCTACGACGGGATT
B5: UAGCAGA (DNA:RNA)
RNA: B1 RNA with A25U, A27G, G28C, U29A, C30G, G31A
DNA 1: CAATCTGAATTCCGGTCTCCC
DNA 2: TGGTGGCTACGACGGGATT
B6: GGAUUGC (DNA:RNA)
RNA: B1 RNA with A25G, A26G, G28U, C30G, G31C
DNA 1: CAATCTGAATTCCGGTCTCCC
DNA 2: TGGTGGCTACGACGGGATT
B7: UCGCAGG (DNA:RNA)
RNA: B1 RNA with A25U, A26C, A27G, G28C, U29A, C30G
DNA 1: CAATCTGAATTCCGGTCTCCC
DNA 2: TGGTGGCTACGACGGGATT
B8: AUGACAG (DNA:RNA)
RNA: B1 RNA with A26U, A27G, G28A, U29C, C30A
DNA 1: CAATCTGAATTCCGGTCTCCC
DNA 2: TGGTGGCTACGACGGGATT
B9: AAAUGCC (DNA:RNA)
RNA: B1 RNA with G28U, U29G, G31C
DNA 1: CAATCTGAATTCCGGTCTCCC
DNA 2: TGGTGGCTACGACGGGATT
B10: UAUCAGA (DNA:RNA)
RNA: B1 RNA with A25U, A27U, G28C, U29A, C30G, G31A
DNA 1: CAATCTGAATTCCGGTCTCCC
DNA 2: TGGTGGCTACGACGGGATT
B11: CUCAUAC (DNA:RNA)
RNA: B1 RNA with A25C, A26U, A27C, G28A, C30A, G31C
DNA 1: CAATCTGAATTCCGGTCTCCC
DNA 2: TGGTGGCTACGACGGGATT
B12: AAACAGA (DNA:RNA)
RNA: B1 RNA with G28C, U29A, C30G, G31A
DNA 1: CAATCTGAATTCCGGTCTCCC
DNA 2: TGGTGGCTACGACGGGATT
B13: GUCUUGU (DNA:RNA)
RNA: B1 RNA with A25G, A26U, A27C, G28U, C30G, G31U
DNA 1: CAATCTGAATTCCGGTCTCCC
DNA 2: TGGTGGCTACGACGGGATT
B14: AUCUGCG (DNA:RNA)
RNA: B1 RNA with A26U, A27C, G28U, U29G
DNA 1: CAATCTGAATTCCGGTCTCCC
DNA 2: TGGTGGCTACGACGGGATT
B15: UGCAGAA (DNA:RNA)
RNA: GGGAGACCGGAAUUCAGAUUGUCCUGCAGAAUUAAAUCCCGUCGUAGCCACCA
DNA 1: CAATCTGAATTCCGGTCTCCC
DNA 2: TGGTGGCTACGACGGGATT
B16: AGAGAGA (DNA:RNA)
RNA: B1 RNA with A26G, U29A, C30G, G31A
DNA 1: CAATCTGAATTCCGGTCTCCC
DNA 2: TGGTGGCTACGACGGGATT
B17: GCUCCUA (DNA:RNA)
RNA: B15 RNA with U25G, G26C, C27U, A28C, G29C, A30U
DNA 1: CAATCTGAATTCCGGTCTCCC
DNA 2: TGGTGGCTACGACGGGATT
B18: AAUCCCG (DNA:RNA)
RNA: B1 RNA with A27U, G28C, U29C
DNA 1: CAATCTGAATTCCGGTCTCCC
DNA 2: TGGTGGCTACGACGGGATT
B19: ACUCUAC (DNA:RNA)
RNA: B1 RNA with A26C, A27U, G28C, C30A, G31C
DNA 1: CAATCTGAATTCCGGTCTCCC
DNA 2: TGGTGGCTACGACGGGATT
B20: GAUGAGG (DNA:RNA)
RNA: B1 RNA with A25G, A27U, U29A, C30G
DNA 1: CAATCTGAATTCCGGTCTCCC
DNA 2: TGGTGGCTACGACGGGATT
B21: GUCGGCA (DNA:RNA)
RNA: B15 RNA with U25G, G26U, A28G, A30C
DNA 1: CAATCTGAATTCCGGTCTCCC
DNA 2: TGGTGGCTACGACGGGATT
B22: AACUCGA (DNA:RNA)
RNA: B1 RNA with A27C, G28U, U29C, C30G, G31A
DNA 1: CAATCTGAATTCCGGTCTCCC
DNA 2: TGGTGGCTACGACGGGATT
B23: UGGAAUA (DNA:RNA)
RNA: B15 RNA with C27G, G29A, A30U
DNA 1: CAATCTGAATTCCGGTCTCCC
DNA 2: TGGTGGCTACGACGGGATT
B24: UAAGACC (DNA:RNA)
RNA: B1 RNA with A25U, U29A, G31C
DNA 1: CAATCTGAATTCCGGTCTCCC
DNA 2: TGGTGGCTACGACGGGATT
B25: UAAAUUA (DNA:RNA)
RNA: B1 RNA with A25U, G28A, C30U, G31A
DNA 1: CAATCTGAATTCCGGTCTCCC
DNA 2: TGGTGGCTACGACGGGATT
B26: AUCACCU (DNA:RNA)
RNA: B1 RNA with A26U, A27C, G28A, U29C, G31U
DNA 1: CAATCTGAATTCCGGTCTCCC
DNA 2: TGGTGGCTACGACGGGATT
B27: UCACUGU (DNA:RNA)
RNA: B1 RNA with A25U, A26C, G28C, C30G, G31U
DNA 1: CAATCTGAATTCCGGTCTCCC
DNA 2: TGGTGGCTACGACGGGATT
B28: CCGCGUG (DNA:RNA)
RNA: B1 RNA with A25C, A26C, A27G, G28C, U29G, C30U
DNA 1: CAATCTGAATTCCGGTCTCCC
DNA 2: TGGTGGCTACGACGGGATT
B29: AUGGUCA (DNA:RNA)
RNA: B1 RNA with A26U, A27G, G31A
DNA 1: CAATCTGAATTCCGGTCTCCC
DNA 2: TGGTGGCTACGACGGGATT
B30: AUAUCGC (DNA:RNA)
RNA: B1 RNA with A26U, G28U, U29C, C30G, G31C
DNA 1: CAATCTGAATTCCGGTCTCCC
DNA 2: TGGTGGCTACGACGGGATT
B31: GCCCGUC (DNA:RNA)
RNA: B15 RNA with U25G, G26C, A28C, A30U, A31C
DNA 1: CAATCTGAATTCCGGTCTCCC
DNA 2: TGGTGGCTACGACGGGATT

Where a chain is given by its changes, count along the chain named. The list shows a part of the results.

For the test, the target named is T1, RBFOX1 RRM RbFoxmut (Fox-RRM*). Nature of the test: EMSA; HiTS-Eq, 1 nM pool, 10 min; buffer printed only for the single-RNA assays: 10 mM Tris pH 7.5, 150 mM NaCl, 3.4 mM EDTA, 0.001% NP-40, 30 C. The note with it: tags: His6 N-terminal (pET28a); label: 5' 32P. Put shortly:
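These values rest on relative association constants, computed from read-count changes of each RNA species versus the control reaction and normalised to the cognate motif. Reads came from free RNA recovered by 8% native PAGE after purified RbFox RRM (wild type or mutant) at increasing concentrations was equilibrated for 10 min in 50 µL with 1 nM of a 5′-radiolabelled pool with 7 randomized nucleotides and DNA-annealed flanks.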
Consider B1, for which the binding signal is 0.0853 KA relative to UGCAUGU.
The same measure for B2: 0.127 KA relative to UGCAUGU.
On to B3, for which the binding signal is 0.101 KA relative to UGCAUGU.
The same measure for B4: 0.0468 KA relative to UGCAUGU; for B5: 0.11 KA relative to UGCAUGU.
The same measure for B6: 0.174 KA relative to UGCAUGU; for B7: 0.133 KA relative to UGCAUGU; for B8: 0.0683 KA relative to UGCAUGU.
With B9 the figure was 0.127 KA relative to UGCAUGU.
Take B10: the binding signal was 0.0548 KA relative to UGCAUGU.
With B11 the figure was 0.112 KA relative to UGCAUGU; with B12, 0.0664 KA relative to UGCAUGU.
The same measure for B13: 0.639 KA relative to UGCAUGU; for B14: 0.116 KA relative to UGCAUGU.
With B15 the figure was 0.112 KA relative to UGCAUGU; with B16, 0.111 KA relative to UGCAUGU; with B17, 0.0568 KA relative to UGCAUGU.
In the case of B18, the binding signal is 0.0642 KA relative to UGCAUGU.
The same measure for B19: 0.0757 KA relative to UGCAUGU; for B20: 0.0814 KA relative to UGCAUGU; for B21: 0.13 KA relative to UGCAUGU.
The same measure for B22: 0.0909 KA relative to UGCAUGU; for B23: 0.243 KA relative to UGCAUGU; for B24: 0.0707 KA relative to UGCAUGU.
As to B25, the binding signal was 0.0827 KA relative to UGCAUGU.
The same measure for B26: 0.088 KA relative to UGCAUGU; for B27: 0.0994 KA relative to UGCAUGU.
With B28 the figure was 0.107 KA relative to UGCAUGU.
On to B29, for which the binding signal is 0.126 KA relative to UGCAUGU.
With B30 the figure was 0.0788 KA relative to UGCAUGU; with B31, 0.0748 KA relative to UGCAUGU.
